Measurements from the supplement of paper PMC11417369.
Some of the results follow.

Tested on: PfSIP2 AP2 domain 1 (GST-tagged)
Assay: gcPBM binding intensity (ln(normalized median fluorescence intensity)); higher = stronger DNA binding
Method in brief: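 DNA-binding domains from P. falciparum, fused to GST and produced in E. coli, were put on an Agilent 4 × 180k double-stranded probe array for 1 h in 1× PBS holding 1% milk, 0.2 mg/ml BSA, 0.5% salmon testes DNA and 0.03% Triton X-100. Probes were primer-extended, 36 bp long and drawn from intergenic genomic regions, with negative controls included. After Alexa488 anti-GST antibody detection and a 488 nm scan, binding intensity was set as the highest Masliner-normalised natural-log median intensity across replicate spots of either probe orientation.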

Sequence	gcPBM binding intensity (ln)
AGAGAGAAAGTTATAACATGCAACAATTTTTAGAAC [TGCATGCA_site96]	6.92
TTTCCATATTGTGGATGTACGTTTTGAGGTTTTTAC [XGTACX_site3362]	7.1
ATATATATTTCTTAAAGTACATAATAATAAAAATAT [XGTACX_site8981]	7.12
ATAATTATTAAGAGAACATGCAAAATATATATGTTT [TGCATGCA_site503]	6.95
AAAGCACCCAGGCACACACACAAAGGAAAAGAAAAA [CACACA_site232]	8.53
ATATATATATATATTTGTACGTATTATGTATTTTTT [XGTACX_site3530]	9.57
AATACAATAAAATAGTGTACATATATATTATGTATA [XGTACX_site8258]	6.93
TTAAAATATGATATATGTACATAATTACTAAAAACA [XGTACX_site276]	7.14
GAATAAATTAAAAACGCATGTATCATTACTACATAA [TGCATGCA_site111]	6.59
TTTATATTATACTATACATGCATATAATAAAGGTCA [TGCATGCA_site934]	6.91
AATAGAATAATCCTTACACACACACGCGCACGAATA [CACACA_site6365]	7.3
ATTTTATTTTTTTGTGATAATTGATTTATATATTGT [TGCATGCA_negctrl_site563]	6.94
ATTATTTCTTTGTGATGTACAAATAAACATGTTGGT [XGTACX_site5636]	7.14
TATATATTACATTGTTGTACATATATATTATATATA [XGTACX_site60]	7.15
ATTCATTTTATTTTTTCACACACACCGATATATATA [CACACA_site9097]	7.49
ACCCCCATATTCTTTTTACACACTTGAATAAAAAAT [CACACA_site8319]	7.63
ATTTTTCAATTATGTAGTACATTGATATTTTCATTT [XGTACX_site5369]	7.02
TTTATATTTATATTGGGTACATAAAAAGCTTGAAAT [XGTACX_site8248]	7.19
ATTTTTATTCTTATTACACACCTAAATATAAAATAT [CACACA_site2064]	7.33
TGTGTTCATATATGCACACGCATATATATTATTGTT [CACACA_site3822]	7.02
TGTGTCCATTGAACAGTGCAATAAAAACTTTTACAT	7.96
ATAAATATGGAGCACACACACATAAACATACATATA [CACACA_site421]	7.33

Sequence	gcPBM binding intensity (ln)
AAAAAAAAAAAACACACACACACACCGATACATACA [CACACA_site8849]	7.09
TTTTTTTTTTTGTGGTGTACCTTTATTTCCTTTTAG [XGTACX_site6934]	6.96
AAAGGGGAAAATATTATACATATAATAAATCCGTAT [XGTACX_negctrl_site355]	6.91
AGTAATAAAAGTAGAAGTACAATACTTCAAAGATAT [XGTACX_site8562]	7.3
GTTCTAAAAGTTAATGCATGTTATAAGTTTCCCTCT [TGCATGCA_site94]	6.92
TATTTCAAAATATGGGTGCAGTTCTTCATGATATAT [GTGCAC_site9658]	10.7
ATGTATATATTTACGTGTACATATTCATGTGATATC [XGTACX_site5871]	7
TTATACTTTGGGTGGTGTACTATATTATGCTTATAA [XGTACX_site1106]	7.47
TGCTATTTTTTCCTTTTTTTGTATCACAATCATATA [CACACA_negctrl_site1576]	6.97
ATTAAACATAAATATGCACACATATACATATATTCA [CACACA_site8850]	7.35
TTTATTTATTAATACACACACACACCCAGACAAAAT [CACACA_site4292]	7.79
TATCTTTTTACAATAGTGCATATGTTATCATTAATA [GTGCAC_site9489]	8.59
AGATATATAAATATTACACACTATATATCTATTTAT [CACACA_site6466]	6.82
ATTTGCCCATTTAATTAACACACAAATGTTTATATT [CACACA_site8145]	7.28
ATTATATACATTTTAGTGCATTACATAATAATATAA [GTGCAC_site9836]	9.17
GTATGCATTATATACACACATACATTTATATATTCT [CACACA_site115]	7.02
TTTCTTTTTTGATGCGTGCACATTTGTTTATTTTTC [GTGCAC_site9792]	9.67
AAAAAACGCACTCGTACACACATATTTTCTTTCTAA [CACACA_site3089]	8.76
TTAATTACACAAAAAAGTACTTGATATTGTTTATTA [XGTACX_site3449]	6.85
ATATAATCAACTGCAAAGGTTTAAAAGGAAAAAATA [CACACA_negctrl_site989]	6.79
AATATTTACCAGAAAATAAAAATATGTATATATATA [CACACA_negctrl_site351]	8.24
AATATTTATATTTACACACACATAATACATATATGT [CACACA_site33]	7.08
